Source: the supplement of paper PMC8728848
Some of the results follow.

Legend:
Experiment in all cases: glycan array binding signal (z-score within array); higher = stronger binding
Settings in all cases: glycan notation: IUPAC condensed, linker removed
[1] = target: Neu5Ac(a2-3)Gal(b1-4)[Fuc(a1-3)]GlcNAc(b1-3)GalNAc
In short: (§1)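 Negative Z-scores can be read as non-binding. The Z-score is calculated within each array and then averaged across arrays of one protein sequence at different concentrations or buffers and across linkers. Arrays, 3228 in all, were curated from the Consortium for Functional Glycomics database and kept only where the protein sequence was available.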

[2] = target: Neu5Ac(a2-3)Gal(b1-4)[Fuc(a1-3)]GlcNAc(b1-6)[Gal(b1-3)]GalNAc
In short: as §1

[3] = target: Neu5Ac(a2-3)Gal(b1-4)[Fuc(a1-3)]GlcNAc(b1-6)[Neu5Ac(a2-3)Gal(b1-3)]GalNAc
In short: as §1

[4] = target: Neu5Ac(a2-3)Gal(b1-4)[Fuc(a1-3)]GlcNAc6S
In short: as §1

[5] = target: Neu5Ac(a2-3)Gal6S(b1-4)GlcNAc
In short: as §1

[6] = target: Neu5Ac(a2-3)Gal6S(b1-4)[Fuc(a1-3)]GlcNAc
In short: as §1

[7] = target: Neu5Ac(a2-3)GalNAc
In short: as §1

[8] = target: Neu5Ac(a2-3)GalNAc(b1-4)GlcNAc
In short: as §1

[9] = target: Neu5Ac(a2-3)[GalNAc(b1-4)]Gal(b1-4)Glc
In short: as §1

[10] = target: Neu5Ac(a2-3)[GalNAc(b1-4)]Gal(b1-4)GlcNAc
In short: as §1

[11] = target: Neu5Ac(a2-3)[Neu5Ac(a2-6)]GalNAc
In short: as §1

[12] = target: Neu5Ac(a2-6)Gal
In short: as §1

[13] = target: Neu5Ac(a2-6)Gal(b1-4)Glc
In short: as §1

[14] = target: Neu5Ac(a2-6)Gal(b1-4)GlcNAc
In short: as §1

[15] = target: Neu5Ac(a2-6)Gal(b1-4)GlcNAc(b1-2)Man(a1-3)Man(b1-4)GlcNAc(b1-4)GlcNAc
In short: as §1

[16] = target: Neu5Ac(a2-6)Gal(b1-4)GlcNAc(b1-2)Man(a1-3)[Gal(b1-4)GlcNAc(b1-2)Man(a1-6)]Man(b1-4)GlcNAc(b1-4)GlcNAc
In short: as §1

[17] = target: Neu5Ac(a2-6)Gal(b1-4)GlcNAc(b1-2)Man(a1-3)[GlcNAc(b1-2)Man(a1-6)]Man(b1-4)GlcNAc(b1-4)GlcNAc
In short: as §1

[18] = target: Neu5Ac(a2-6)Gal(b1-4)GlcNAc(b1-2)Man(a1-3)[GlcNAc(b1-2)Man(b1-4)GlcNAc(b1-2)Man(a1-6)]Man(b1-4)GlcNAc(b1-4)GlcNAc
In short: as §1

[19] = target: Neu5Ac(a2-6)Gal(b1-4)GlcNAc(b1-2)Man(a1-3)[Man(a1-6)]Man(b1-4)GlcNAc(b1-4)GlcNAc
In short: as §1

[20] = target: Neu5Ac(a2-6)Gal(b1-4)GlcNAc(b1-2)Man(a1-3)[Neu5Ac(a2-6)Gal(b1-4)GlcNAc(b1-2)Man(a1-6)]Man(b1-4)GlcNAc(b1-4)GlcNAc
In short: as §1

[21] = target: Neu5Ac(a2-6)Gal(b1-4)GlcNAc(b1-2)Man(a1-6)Man(b1-4)GlcNAc(b1-4)GlcNAc
In short: as §1

[22] = target: Neu5Ac(a2-6)Gal(b1-4)GlcNAc(b1-2)Man(a1-6)[Gal(b1-4)GlcNAc(b1-2)Man(a1-3)]Man(b1-4)GlcNAc(b1-4)GlcNAc
In short: as §1

[23] = target: Neu5Ac(a2-6)Gal(b1-4)GlcNAc(b1-2)Man(a1-6)[GlcNAc(b1-2)Man(a1-3)]Man(b1-4)GlcNAc(b1-4)GlcNAc
In short: as §1

[24] = target: Neu5Ac(a2-6)Gal(b1-4)GlcNAc(b1-2)Man(a1-6)[Man(a1-3)]Man(b1-4)GlcNAc(b1-4)GlcNAc
In short: as §1

[25] = target: Neu5Ac(a2-6)Gal(b1-4)GlcNAc(b1-3)Gal(b1-3)GlcNAc
In short: as §1

[26] = target: Neu5Ac(a2-6)Gal(b1-4)GlcNAc(b1-3)Gal(b1-4)GlcNAc
In short: as §1

[27] = target: Neu5Ac(a2-6)Gal(b1-4)GlcNAc(b1-3)Gal(b1-4)GlcNAc(b1-3)Gal(b1-4)GlcNAc
In short: as §1

[28] = target: Neu5Ac(a2-6)Gal(b1-4)GlcNAc(b1-3)Gal(b1-4)[Fuc(a1-3)]GlcNAc(b1-3)Gal(b1-4)[Fuc(a1-3)]GlcNAc
In short: as §1

[29] = target: Neu5Ac(a2-6)Gal(b1-4)GlcNAc(b1-3)GalNAc
In short: as §1

[30] = target: Neu5Ac(a2-6)Gal(b1-4)GlcNAc6S
In short: as §1

[31] = target: Neu5Ac(a2-6)GalNAc
In short: as §1

[32] = target: Neu5Ac(a2-6)GalNAc(b1-4)GlcNAc
In short: as §1

[33] = target: Neu5Ac(a2-6)GlcNAc(b1-4)GlcNAc
In short: as §1

[34] = target: Neu5Ac(a2-6)GlcNAc(b1-4)GlcNAc(b1-4)GlcNAc
In short: as §1

[35] = target: Neu5Ac(a2-8)Neu5Ac
In short: as §1

[36] = target: Neu5Ac(a2-8)Neu5Ac(a2-3)Gal(b1-4)Glc
In short: as §1

[37] = target: Neu5Ac(a2-8)Neu5Ac(a2-3)[GalNAc(b1-4)]Gal(b1-4)Glc
In short: as §1

[38] = target: Neu5Ac(a2-8)Neu5Ac(a2-8)Neu5Ac
In short: as §1

[39] = target: Neu5Ac(a2-8)Neu5Ac(a2-8)Neu5Ac(a2-3)Gal(b1-4)Glc
In short: as §1

[40] = target: Neu5Ac(a2-8)Neu5Ac(a2-8)Neu5Ac(a2-3)[GalNAc(b1-4)]Gal(b1-4)Glc
In short: as §1

[41] = target: Neu5Ac(a2-8)Neu5Ac(a2-8)Neu5Ac(a2-8)Neu5Ac(a2-3)[GalNAc(b1-4)]Gal(b1-4)Glc
In short: as §1

[42] = target: Neu5Ac(b2-6)Gal(b1-4)GlcNAc
In short: as §1

[43] = target: Neu5Ac(b2-6)GalNAc
In short: as §1

[44] = target: Neu5Ac9Ac(a2-3)Gal(b1-3)GlcNAc
In short: as §1

[45] = target: Neu5Ac9Ac(a2-3)Gal(b1-4)GlcNAc
In short: as §1

[46] = target: Neu5Ac9Ac(a2-6)Gal(b1-4)GlcNAc
In short: as §1

[47] = target: Neu5Gc(a2-3)Gal(b1-3)GlcNAc
In short: as §1

[48] = target: Neu5Gc(a2-3)Gal(b1-3)[Fuc(a1-4)]GlcNAc
In short: as §1

[49] = target: Neu5Gc(a2-3)Gal(b1-4)Glc
In short: as §1

[50] = target: Neu5Gc(a2-3)Gal(b1-4)GlcNAc
In short: as §1

[51] = target: Neu5Gc(a2-3)Gal(b1-4)[Fuc(a1-3)]GlcNAc
In short: as §1

[52] = target: Neu5Gc(a2-6)Gal(b1-4)GlcNAc
In short: as §1

[53] = target: Neu5Gc(a2-6)GalNAc
In short: as §1

[54] = target: Neu5Gc(b2-6)Gal(b1-4)GlcNAc
In short: as §1

Binder: GIINTLQKYYCRVRGGRCAVLSCLPKEEQIGKCSTRGRKCCRRKK [Beta-Defensin 3 (Homo sapiens), P81534]
- glycan array binding signal (z-score) [1]: 0.787
- glycan array binding signal (z-score) [2]: -0.458
- glycan array binding signal (z-score) [3]: 0.056
- glycan array binding signal (z-score) [4]: -0.797
- glycan array binding signal (z-score) [5]: -0.196
- glycan array binding signal (z-score) [6]: 1.68
- glycan array binding signal (z-score) [7]: -0.526
- glycan array binding signal (z-score) [8]: -0.402
- glycan array binding signal (z-score) [9]: -0.361
- glycan array binding signal (z-score) [10]: -0.338
- glycan array binding signal (z-score) [11]: 0.117
- glycan array binding signal (z-score) [12]: 0.274
- glycan array binding signal (z-score) [13]: -0.294
- glycan array binding signal (z-score) [14]: -0.021
- glycan array binding signal (z-score) [15]: -0.441
- glycan array binding signal (z-score) [16]: -0.467
- glycan array binding signal (z-score) [17]: -0.585
- glycan array binding signal (z-score) [18]: -0.583
- glycan array binding signal (z-score) [19]: -0.313
- glycan array binding signal (z-score) [20]: -0.472
- glycan array binding signal (z-score) [21]: -0.508
- glycan array binding signal (z-score) [22]: -0.58
- glycan array binding signal (z-score) [23]: -0.404
- glycan array binding signal (z-score) [24]: -0.597
- glycan array binding signal (z-score) [25]: 2.47
- glycan array binding signal (z-score) [26]: -0.64
- glycan array binding signal (z-score) [27]: 0.135
- glycan array binding signal (z-score) [28]: -0.423
- glycan array binding signal (z-score) [29]: 1.54
- glycan array binding signal (z-score) [30]: 2.57
- glycan array binding signal (z-score) [31]: -0.423
- glycan array binding signal (z-score) [32]: -0.594
- glycan array binding signal (z-score) [33]: -0.292
- glycan array binding signal (z-score) [34]: -0.622
- glycan array binding signal (z-score) [35]: -0.345
- glycan array binding signal (z-score) [36]: -0.416
- glycan array binding signal (z-score) [37]: -0.591
- glycan array binding signal (z-score) [38]: -0.341
- glycan array binding signal (z-score) [39]: -0.558
- glycan array binding signal (z-score) [40]: -0.582
- glycan array binding signal (z-score) [41]: -0.409
- glycan array binding signal (z-score) [42]: 0.104
- glycan array binding signal (z-score) [43]: -0.1
- glycan array binding signal (z-score) [44]: -0.107
- glycan array binding signal (z-score) [45]: -0.363
- glycan array binding signal (z-score) [46]: -0.397
- glycan array binding signal (z-score) [47]: 0.08
- glycan array binding signal (z-score) [48]: -0.197
- glycan array binding signal (z-score) [49]: -0.025
- glycan array binding signal (z-score) [50]: -0.111
- glycan array binding signal (z-score) [51]: -0.09
- glycan array binding signal (z-score) [52]: 0.053
- glycan array binding signal (z-score) [53]: 0.608
- glycan array binding signal (z-score) [54]: -0.209
